Single values of this set are uncertain.
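Further: [psi-pin-] Saccharomyces cerevisiae expressing SupN fusions, induced by 100 µM Cu2SO4, selected 7 d at 30 °C without adenine and uracil, scored by deep sequencing of output versus input.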

The first series can be described thus: amyloid nucleation score relative to library mode (yeast Sup35 reporter selection) (log enrichment difference); higher = more amyloid nucleation; sequences are the first 22 residues of the Bri2 peptide extended by up to 12 random residues. Particulars: random library (experiment): 1;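 active = nucleation score significantly above 0 at FDR 0.05; inactive = not significantly above 0 or absent from output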.
With EASNCFAIRHFENKFAVETLICLRMGWERCPVRW, the amyloid nucleation score result is “inactive”.
Take EASNCFAIRHFENKFAVETLICLRNGLNNQLCVG: the amyloid nucleation score entry is “inactive”.
As to EASNCFAIRHFENKFAVETLICLRNNVFRFPYM, the amyloid nucleation score result is “inactive”.
Turning to EASNCFAIRHFENKFAVETLICLRNVGESRITIK, the amyloid nucleation score was 0.307.
EASNCFAIRHFENKFAVETLICLRPCFAWLVALR showed an amyloid nucleation score of 4.68.
On the same count and under the same terms, as for EASNCFAIRHFENKFAVETLICLRPCGCVRGCVR, the entry is “inactive”; as for EASNCFAIRHFENKFAVETLICLRQFRVTEKGFT, “inactive”.
EASNCFAIRHFENKFAVETLICLRQTGTQFAWV had an amyloid nucleation score of 2.64.
Take EASNCFAIRHFENKFAVETLICLRRFTRFKEVA: the amyloid nucleation score result was “inactive”.
EASNCFAIRHFENKFAVETLICLRRI yielded an amyloid nucleation score of 4.18.
As for EASNCFAIRHFENKFAVETLICLRRLLRSREFVM, the amyloid nucleation score turned out to be 0.636.
Same read-out and setting: with EASNCFAIRHFENKFAVETLICLRRSNTGAGLCR the entry was “inactive”; with EASNCFAIRHFENKFAVETLICLRRTVVKGNSRW, -0.137.
Sequence EASNCFAIRHFENKFAVETLICLRSGMSKTGR yielded an amyloid nucleation score of -0.0755.
Consider EASNCFAIRHFENKFAVETLICLRSGRSERRRSR, for which the amyloid nucleation score result is “inactive”.
Take EASNCFAIRHFENKFAVETLICLRSIPFTSPGRS: the amyloid nucleation score entry is “inactive”.
As to EASNCFAIRHFENKFAVETLICLRSLS, the amyloid nucleation score result is “inactive”.
In the case of EASNCFAIRHFENKFAVETLICLRSLSKLRSYGL, the amyloid nucleation score result was “inactive”.
Take EASNCFAIRHFENKFAVETLICLRTMGRAEEVSG: the amyloid nucleation score result was “inactive”.
On the same count and under the same terms, as for EASNCFAIRHFENKFAVETLICLRVFWRIACIES, the entry is “inactive”; as for EASNCFAIRHFENKFAVETLICLRVHSWYVYMYR, “inactive”; as for EASNCFAIRHFENKFAVETLICLRVIIG, “inactive”.
EASNCFAIRHFENKFAVETLICLRVTIWPSSMCI: the amyloid nucleation score entry was “inactive”.
In turn, EASNCFAIRHFENKFAVETLICLRVWKMTAGGW returned an amyloid nucleation score of -0.0846.
Same read-out and setting: as for EASNCFAIRHFENKFAVETLICLRYGEKIRWRYA, the entry is “inactive”; as for EASNCFAIRHFENKFAVETLICLRYSLVVRRGMS, 0.578; as for EASNCFAIRHFENKFAVETLICLRYWAGLMEEWR, “inactive”.
As for EASNCFAIRHFENKFAVETLICLS, the amyloid nucleation score entry is “inactive”.
Regarding EASNCFAIRHFENKFAVETLICLSALGAPWSVGE, the amyloid nucleation score was determined as 5.38.
Same read-out and setting: as for EASNCFAIRHFENKFAVETLICLSAPRTNCSYPL, the figure is 1.89.
EASNCFAIRHFENKFAVETLICLSCKNVTWIGLG: the amyloid nucleation score came out at 3.95.
Sequence EASNCFAIRHFENKFAVETLICLSCLGA yielded an amyloid nucleation score of 8.71.
In the case of EASNCFAIRHFENKFAVETLICLSDMF, the amyloid nucleation score came out at 4.71.
Turning to EASNCFAIRHFENKFAVETLICLSDMWTALVWSG, the amyloid nucleation score entry was “inactive”.
With EASNCFAIRHFENKFAVETLICLSDYWPDLGNRT, the amyloid nucleation score entry is “inactive”.
For EASNCFAIRHFENKFAVETLICLSEDANVDVGRR, the amyloid nucleation score entry is “inactive”.
As for EASNCFAIRHFENKFAVETLICLSEFRLLRRQVG, the amyloid nucleation score result is “inactive”.
Take EASNCFAIRHFENKFAVETLICLSELSCERWIQG: the amyloid nucleation score entry was “inactive”.
With EASNCFAIRHFENKFAVETLICLSEYITR, the amyloid nucleation score entry was “inactive”.
EASNCFAIRHFENKFAVETLICLSFCTAWASYQW displayed an amyloid nucleation score of 6.3.
Regarding EASNCFAIRHFENKFAVETLICLSFFTLMHNKV, the amyloid nucleation score entry is “inactive”.
In the case of EASNCFAIRHFENKFAVETLICLSFLIRGPSQTR, the amyloid nucleation score result is “inactive”.

Still in this series, the particulars now being: random library (experiment): 2.
On to EASNCFAIRHFENKFAVETLICLRLW, for which the amyloid nucleation score is 5.05.
EASNCFAIRHFENKFAVETLICLRMEAEASSVWV: the amyloid nucleation score entry was “inactive”.
Turning to EASNCFAIRHFENKFAVETLICLRMHLPSQDSHM, the amyloid nucleation score stood at 2.95.
For EASNCFAIRHFENKFAVETLICLRQFIKVYHQRH, the amyloid nucleation score result was “inactive”.
As to EASNCFAIRHFENKFAVETLICLRQNFVDGIVLD, the amyloid nucleation score entry is “inactive”.
EASNCFAIRHFENKFAVETLICLRRLCIYFNLS displayed an amyloid nucleation score of -0.708.
For the sequence EASNCFAIRHFENKFAVETLICLRRQYFRSIFKS, the amyloid nucleation score entry is “inactive”.
The same measure, in the same setting: with EASNCFAIRHFENKFAVETLICLRSMHFYFRRGR the figure was -0.191; with EASNCFAIRHFENKFAVETLICLRSMIVSCGCHA, “inactive”.
EASNCFAIRHFENKFAVETLICLRSPFIILTYRW: the amyloid nucleation score result was “inactive”.
With EASNCFAIRHFENKFAVETLICLRSSIVF, the amyloid nucleation score entry is “inactive”.
The same measure, in the same setting: as for EASNCFAIRHFENKFAVETLICLRSYKVCPSFCG, the figure is 4.11; as for EASNCFAIRHFENKFAVETLICLRTYAQRIGA, 0.85.
In the case of EASNCFAIRHFENKFAVETLICLRVACDRCGGSW, the amyloid nucleation score is -0.166.
Consider EASNCFAIRHFENKFAVETLICLRVLYRNYLLGA, for which the amyloid nucleation score result was “inactive”.
Consider EASNCFAIRHFENKFAVETLICLRVVFGIERMVM, for which the amyloid nucleation score entry was “inactive”.
Regarding EASNCFAIRHFENKFAVETLICLRVWCYCFMRFM, the amyloid nucleation score result is “inactive”.
The same measure, in the same setting: with EASNCFAIRHFENKFAVETLICLRVWY the entry was “inactive”; with EASNCFAIRHFENKFAVETLICLRWRYNLVCRSC, “inactive”.
The same measure, in the same setting: as for EASNCFAIRHFENKFAVETLICLRYYLYASMY, the entry is “inactive”; as for EASNCFAIRHFENKFAVETLICLSCGLLTGRIMG, 7.85; as for EASNCFAIRHFENKFAVETLICLSCNKLRFARFV, -0.0677.
With EASNCFAIRHFENKFAVETLICLSCYFGR, the amyloid nucleation score is 8.92.
Still for that read-out and setting: as for EASNCFAIRHFENKFAVETLICLSCYWQRSLFIT, the figure is 1.54; as for EASNCFAIRHFENKFAVETLICLSEKMLYPVYGD, “inactive”.
In the case of EASNCFAIRHFENKFAVETLICLSETFNNIPKAL, the amyloid nucleation score came to 0.261.
With EASNCFAIRHFENKFAVETLICLSETSVVACGMP, the amyloid nucleation score entry was “inactive”.
The same measure, in the same setting: with EASNCFAIRHFENKFAVETLICLSFDIPWESLLI the entry was “inactive”.
On to EASNCFAIRHFENKFAVETLICLSFKYRYMLFAR, for which the amyloid nucleation score entry was “inactive”.
In the case of EASNCFAIRHFENKFAVETLICLSFLDPLVAGMR, the amyloid nucleation score result is “inactive”.
The sequence EASNCFAIRHFENKFAVETLICLSFTNNIGIVSK registered an amyloid nucleation score of 5.67.
As for EASNCFAIRHFENKFAVETLICLSFVIVGHSIVF, the amyloid nucleation score entry is “inactive”.

Staying with this series, now noted: random library (experiment): 3.
Turning to EASNCFAIRHFENKFAVETLICLRMGNWGGKAFP, the amyloid nucleation score entry is “inactive”.
The sequence EASNCFAIRHFENKFAVETLICLRMSRRWYTDGR had an amyloid nucleation score of 1.62.
Still for that read-out and setting: as for EASNCFAIRHFENKFAVETLICLRRAVR, the entry is “inactive”.
As for EASNCFAIRHFENKFAVETLICLRRGGTGDGRKP, the amyloid nucleation score amounted to 3.57.
As to EASNCFAIRHFENKFAVETLICLRRIVARVSARC, the amyloid nucleation score result is “inactive”.
For the sequence EASNCFAIRHFENKFAVETLICLRRLAW, the amyloid nucleation score result is “inactive”.
On the same count and under the same terms, as for EASNCFAIRHFENKFAVETLICLRRSGSTVPDAA, the entry is “inactive”; as for EASNCFAIRHFENKFAVETLICLRSVTSWARVSW, “inactive”.
Same read-out and setting: as for EASNCFAIRHFENKFAVETLICLRTVMVALLRIT, the entry is “inactive”.
In the case of EASNCFAIRHFENKFAVETLICLRVLAFGDGKHG, the amyloid nucleation score entry was “inactive”.
Turning to EASNCFAIRHFENKFAVETLICLRVLASWKLFGP, the amyloid nucleation score result is “inactive”.
In the case of EASNCFAIRHFENKFAVETLICLRVSTP, the amyloid nucleation score was found to be 1.08.
For the sequence EASNCFAIRHFENKFAVETLICLRWFHNLNVDDS, the amyloid nucleation score entry was “inactive”.
Still for that read-out and setting: as for EASNCFAIRHFENKFAVETLICLRWFVHEAGEPR, the entry is “inactive”; as for EASNCFAIRHFENKFAVETLICLSAAYVWVDYRH, “inactive”.
For the sequence EASNCFAIRHFENKFAVETLICLSACPGVALACS, the amyloid nucleation score entry was “inactive”.
Still for that read-out and setting: with EASNCFAIRHFENKFAVETLICLSAKALRVFCAR the entry was “inactive”; with EASNCFAIRHFENKFAVETLICLSARAVGCPYEG, “inactive”; with EASNCFAIRHFENKFAVETLICLSARLSVLEMAV, 2.99.
Sequence EASNCFAIRHFENKFAVETLICLSCHVQESSRNP gave an amyloid nucleation score of 9.87.
On the same count and under the same terms, with EASNCFAIRHFENKFAVETLICLSCLDEMFAF the figure was 4.89; with EASNCFAIRHFENKFAVETLICLSCNMTEGMFVM, 6.72.
The same measure, in the same setting: with EASNCFAIRHFENKFAVETLICLSCV the figure was 7.95; with EASNCFAIRHFENKFAVETLICLSELIHFFVKRV, 0.788.
As for EASNCFAIRHFENKFAVETLICLSFAYASWPSRV, the amyloid nucleation score stood at 5.38.
EASNCFAIRHFENKFAVETLICLSFESKLSKMFD returned an amyloid nucleation score of 4.44.
For the sequence EASNCFAIRHFENKFAVETLICLSFGLTVRTRSA, the amyloid nucleation score result is “inactive”.
On the same count and under the same terms, as for EASNCFAIRHFENKFAVETLICLSFKATKWKSRR, the figure is 0.527; as for EASNCFAIRHFENKFAVETLICLSFMQEDGYGAR, 6.86.
